The inconclusive results got no clear call from the source; some entries with a clear call stand among them for comparison. Potencies of inconclusive entries are left out as doubtful fits. Active and inactive are the calls of the source. Calls follow the shape of the dose curve; as a rule, active = well fitted activation curve with a large enough effect; inconclusive = small, poorly fitted or top-dose-only effect; inactive = flat fitted curve, though single readings scatter.
target: Thyrotropin-releasing hormone receptor (Homo sapiens) (UniProt P34981); assay: qHTS for Small Molecule Agonists and Allosteric Enhancers of Human TRH Receptor: Confirmation Screen for Agonists; settings: TRHR-expressing cells, agonist activation read-out; series mostly up to 46.1 µM; also: nearly all actives have a fitted effect of over 75% in size
Summary of the method: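 Cells expressing human TRHR were plated at 2000/well in 10% serum medium overnight, loaded with no-wash fluo-8 calcium dye at room temperature, then pin-dosed with library compound. Agonist activity was read as a kinetic calcium rise (ex 480/em 530).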
Potency is read from the fitted curve at half-maximal effect; tags tell the direction and shape of the fitted curve.

Chain of UniProt P34981 (P34981 whole entry, looked up): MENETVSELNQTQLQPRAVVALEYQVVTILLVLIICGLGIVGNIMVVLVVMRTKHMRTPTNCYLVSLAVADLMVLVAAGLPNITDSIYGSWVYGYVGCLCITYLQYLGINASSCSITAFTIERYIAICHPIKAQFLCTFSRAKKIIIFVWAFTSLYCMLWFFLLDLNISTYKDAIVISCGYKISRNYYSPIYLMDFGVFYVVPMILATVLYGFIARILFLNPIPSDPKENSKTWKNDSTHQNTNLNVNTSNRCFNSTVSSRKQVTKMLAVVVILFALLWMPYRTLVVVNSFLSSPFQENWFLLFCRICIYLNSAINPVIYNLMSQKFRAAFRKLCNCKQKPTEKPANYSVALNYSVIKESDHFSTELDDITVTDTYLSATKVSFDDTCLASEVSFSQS

Structure (SMILES) | Potency
COc1ccccc1NC1=C(Cl)C(=O)N(C2CCCCC2)C1=O | inactive
NS(=O)(=O)c1ccc(NC(=O)CN2CCc3ccccc32)cc1 | inactive
Clc1cccc(Cl)c1CSc1nnc(-c2ccncc2)s1 | inconclusive [activator, partial curve, poor fit]
Cc1c(NC(=O)CN2C(=O)NC(C)(c3ccccc3)C2=O)c(=O)n(-c2ccccc2)n1C (stereo not given) | inactive
COc1ccc(CN2CCC(C(=O)Nc3ccc(Oc4ccccc4)nc3)CC2)cc1F | inconclusive [activator, partial curve, poor fit]
CCN1C(=O)c2cccc3c(S(=O)(=O)Nc4ccccc4OC)ccc1c23 | inconclusive [activator, partial curve]
COc1ccc(CNC(=O)c2cc(C3CC3)nc3c2cnn3C(C)C)cc1 | inconclusive [activator, partial curve, poor fit]
CC(C)Oc1ccc(/C=C(/NC(=O)c2ccccc2)C(=O)NCCC(=O)O)cc1 | inactive
O=c1oc2c(CN3CCN(CCO)CC3)c(O)ccc2cc1-c1ccccn1 | inconclusive [activator, partial curve, poor fit]
COC(=O)C1=NN(C(=O)c2ccc(Cl)cc2)C(O)(c2ccccc2)C1 (stereo not given) | active: 18.4 µM
Nc1c(S(=O)(=O)c2ccccc2)c2nc3ccccc3nc2n1Cc1ccco1 | inconclusive [activator, partial curve, poor fit]
Nc1ccc(C(=O)OCC(=O)NC(=O)c2ccccc2)cc1[N+](=O)[O-] | inactive
C=CCn1c(=O)c2ccccc2n2c(SC(C)C(N)=O)nnc12 (stereo not given) | inactive
O=C(c1ccc(C(F)(F)F)cc1)C1CCCN(C(=O)CN2CCCC2=O)C1 (stereo not given) | inactive
CCN(C(=O)Cn1nc(C(=O)O)c2ccccc2c1=O)C1CCCCC1 | inactive
Cc1cc(C(=O)COC(=O)c2cc(O)c3ccccc3c2O)c(C)n1CC1CCCO1 (stereo not given) | inactive
COc1cc(/C=C/c2nc3ccccc3s2)cc(OC)c1O | inconclusive [activator, partial curve, poor fit]
COc1cc(/C=C2\SC(=S)N(Nc3ccccc3)C2=O)ccc1O | active: 16.4 µM
COc1cccc(-c2cc(C(=O)Nc3ccc(OC)c(OC)c3)no2)c1 | inactive
COc1ccc(NC(=O)c2ccc3c(=O)n4c(nc3c2)CCCCC4)cc1 | inactive

Structure (SMILES) | Potency
Cc1cc(C=C2C(=O)c3ccccc3C2=O)c(C)n1-c1ccc(C(=O)O)cc1 | inconclusive [activator, partial curve, poor fit]
O=S(=O)(NCc1ccccc1F)NCc1ccccc1F | inactive
COc1ccc(CNCc2cccc3ccccc23)cc1 | inconclusive [activator, single point]
NC(=O)COC(=O)c1c2c(nc3ccccc13)CCCCC2 | inactive
CCC(C)NC(=O)c1cc2c(=O)n(CC)c3ccccc3c2s1 (stereo not given) | inactive
CCOc1ccccc1NC(=O)C1CC(=O)n2ncnc2N1 (stereo not given) | inactive
COc1cc(/C=C(\C#N)C(=O)NCCc2ccccc2)cc(OC)c1O | active: 20.6 µM
C=CCNC(=O)c1c(N)n(-c2cccc(S(N)(=O)=O)c2)c2nc3ccccc3nc12 | inconclusive [activator, partial curve, poor fit]
Cc1ccc2c(CC(=O)OCC(=O)N(CC(C)C)c3c(N)n(Cc4ccccc4)c(=O)[nH]c3=O)coc2c1 | inconclusive [activator, partial curve, poor fit]
CCOC(=O)c1cc([N+](=O)[O-])sc1NC(=O)c1ccc(S(=O)(=O)N2CC3(C)CC2CC(C)(C)C3)cc1 (stereo not given) | inconclusive [activator, full curve]
CC(=O)c1cc(NC(=O)c2ccccc2)c(=O)oc1/C=C/N(C)C | active: 20.6 µM
COc1cc(/C=C2\SC(=N)N(c3ccc4c(c3)OCO4)C2=O)cc(OC)c1O | inconclusive [activator, full curve, poor fit]
Cc1ccc(S(=O)(=O)N2CCN(CC(=O)N/N=C/c3ccc(Br)s3)CC2)cc1 | inconclusive [activator, partial curve, poor fit]
CS/C(=C\[N+](=O)[O-])Nc1ccc(OC(F)(F)F)cc1 | inconclusive [activator, partial curve, poor fit]
Cc1ccc(O)c(C(=O)c2cc(C#N)c3nc4ccccc4n3c2)c1 | inconclusive [activator, partial curve]
COc1ccc(C(=O)c2sc3nc(-c4ccccc4)ccc3c2N)cc1OC | inconclusive [activator, partial curve]
COc1ccc(NC(=O)COc2ccc3c(c2)CCC3)cc1 | inactive
Cc1cn2c(N)c(C=C3C=C(Cl)C(=O)C(Cl)=C3)c(=O)nc2s1 | active: 9.2 µM
Nc1[nH]c2cc([N+](=O)[O-])ccc2c1-c1ccccn1 | inconclusive [activator, partial curve, poor fit]
N#Cc1ccccc1S(=O)(=O)N1CCN(C(=O)C2COc3ccccc3O2)CC1 (stereo not given) | inconclusive [activator, partial curve, poor fit]
